Results reported in PMC10009787 (ACS Medicinal Chemistry Letters, 2023).

What was measured:
CSK = CSK (Homo sapiens, UniProt P41240); assay: SelectScreen kinase profiling; format: biochemical; settings: average of duplicate
CSNK1E (CK1 epsilon) = CSNK1E (CK1 epsilon) (Homo sapiens, UniProt P49674); assay: SelectScreen kinase profiling; format: biochemical; settings: average of duplicate
RET M918T = biological target: T1, RET M918T (Homo sapiens, UniProt P07949, M918T); assay: SelectScreen kinase profiling; format: biochemical; settings: average of duplicate
T1 sequence (P07949 658-1114 M918T limits assumed): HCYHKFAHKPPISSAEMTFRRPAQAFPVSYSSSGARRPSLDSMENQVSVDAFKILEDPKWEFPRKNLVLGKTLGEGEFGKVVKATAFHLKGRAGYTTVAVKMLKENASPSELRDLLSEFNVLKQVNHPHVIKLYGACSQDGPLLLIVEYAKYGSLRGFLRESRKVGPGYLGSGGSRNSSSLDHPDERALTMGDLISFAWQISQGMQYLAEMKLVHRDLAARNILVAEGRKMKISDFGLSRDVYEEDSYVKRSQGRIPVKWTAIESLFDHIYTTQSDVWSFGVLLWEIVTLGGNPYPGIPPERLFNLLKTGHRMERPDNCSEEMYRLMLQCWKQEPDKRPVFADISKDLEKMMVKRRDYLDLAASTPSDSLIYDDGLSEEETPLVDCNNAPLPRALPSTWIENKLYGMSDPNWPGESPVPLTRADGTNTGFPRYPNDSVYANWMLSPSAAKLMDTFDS

TNK2 (ACK) = TNK2 (ACK) (Homo sapiens, UniProt Q07912); assay: SelectScreen kinase profiling; format: biochemical; settings: average of duplicate
Sequence of UniProt Q07912 (Q07912 whole entry): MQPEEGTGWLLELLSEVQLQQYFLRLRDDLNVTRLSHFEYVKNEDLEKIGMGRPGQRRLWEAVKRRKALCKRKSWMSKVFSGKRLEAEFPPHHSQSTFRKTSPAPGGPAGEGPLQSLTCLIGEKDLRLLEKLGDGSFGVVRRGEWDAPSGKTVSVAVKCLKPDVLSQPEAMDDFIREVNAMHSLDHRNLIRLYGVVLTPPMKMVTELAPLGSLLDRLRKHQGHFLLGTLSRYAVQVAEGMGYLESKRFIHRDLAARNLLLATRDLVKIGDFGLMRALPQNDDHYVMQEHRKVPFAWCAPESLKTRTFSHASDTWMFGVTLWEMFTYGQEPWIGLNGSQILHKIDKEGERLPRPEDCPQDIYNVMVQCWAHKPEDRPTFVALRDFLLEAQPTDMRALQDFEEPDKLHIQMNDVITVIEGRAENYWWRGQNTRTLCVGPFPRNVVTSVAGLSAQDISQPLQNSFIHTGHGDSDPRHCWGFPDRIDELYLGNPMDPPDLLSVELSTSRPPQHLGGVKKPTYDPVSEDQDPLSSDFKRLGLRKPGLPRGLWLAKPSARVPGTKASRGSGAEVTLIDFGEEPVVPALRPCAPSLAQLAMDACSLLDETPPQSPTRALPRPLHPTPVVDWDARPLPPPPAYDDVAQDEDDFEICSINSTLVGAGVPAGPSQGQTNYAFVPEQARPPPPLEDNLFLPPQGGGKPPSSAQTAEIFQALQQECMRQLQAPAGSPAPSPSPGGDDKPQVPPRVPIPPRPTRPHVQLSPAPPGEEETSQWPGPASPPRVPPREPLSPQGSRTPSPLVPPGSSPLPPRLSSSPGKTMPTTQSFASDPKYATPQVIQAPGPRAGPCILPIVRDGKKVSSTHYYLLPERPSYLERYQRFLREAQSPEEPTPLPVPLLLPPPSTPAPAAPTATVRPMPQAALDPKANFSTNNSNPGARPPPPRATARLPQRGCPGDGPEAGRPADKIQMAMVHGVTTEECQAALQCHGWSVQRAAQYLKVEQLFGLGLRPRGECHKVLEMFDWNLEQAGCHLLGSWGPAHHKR

ZAK = ZAK (Homo sapiens, UniProt Q9NYL2); assay: SelectScreen kinase profiling; format: biochemical; settings: average of duplicate
Sequence of UniProt Q9NYL2 (Q9NYL2 whole entry): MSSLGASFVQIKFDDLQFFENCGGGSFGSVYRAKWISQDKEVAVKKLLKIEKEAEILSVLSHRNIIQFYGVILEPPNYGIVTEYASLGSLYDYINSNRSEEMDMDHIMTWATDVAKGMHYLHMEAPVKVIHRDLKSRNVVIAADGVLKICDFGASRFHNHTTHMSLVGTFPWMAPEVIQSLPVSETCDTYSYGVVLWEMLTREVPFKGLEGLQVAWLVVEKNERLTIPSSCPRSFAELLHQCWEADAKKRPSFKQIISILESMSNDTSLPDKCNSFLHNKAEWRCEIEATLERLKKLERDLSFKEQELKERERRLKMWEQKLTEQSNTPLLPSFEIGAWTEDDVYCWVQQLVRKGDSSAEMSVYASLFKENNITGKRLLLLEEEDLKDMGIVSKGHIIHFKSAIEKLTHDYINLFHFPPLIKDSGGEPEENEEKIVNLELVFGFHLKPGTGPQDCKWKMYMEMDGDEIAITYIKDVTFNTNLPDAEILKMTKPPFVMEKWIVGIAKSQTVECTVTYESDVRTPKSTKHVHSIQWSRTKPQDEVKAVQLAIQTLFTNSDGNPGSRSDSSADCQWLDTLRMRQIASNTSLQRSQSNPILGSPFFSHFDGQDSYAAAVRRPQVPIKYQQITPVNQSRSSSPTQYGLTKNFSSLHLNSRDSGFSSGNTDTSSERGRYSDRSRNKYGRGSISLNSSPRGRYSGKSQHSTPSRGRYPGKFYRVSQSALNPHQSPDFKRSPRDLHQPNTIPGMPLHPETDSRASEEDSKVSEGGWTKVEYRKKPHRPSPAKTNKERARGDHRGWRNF

BTK = BTK (Homo sapiens, UniProt Q06187); assay: SelectScreen kinase profiling / Z′-Lyte kinase assay
Sequence of UniProt Q06187 (Q06187 whole entry): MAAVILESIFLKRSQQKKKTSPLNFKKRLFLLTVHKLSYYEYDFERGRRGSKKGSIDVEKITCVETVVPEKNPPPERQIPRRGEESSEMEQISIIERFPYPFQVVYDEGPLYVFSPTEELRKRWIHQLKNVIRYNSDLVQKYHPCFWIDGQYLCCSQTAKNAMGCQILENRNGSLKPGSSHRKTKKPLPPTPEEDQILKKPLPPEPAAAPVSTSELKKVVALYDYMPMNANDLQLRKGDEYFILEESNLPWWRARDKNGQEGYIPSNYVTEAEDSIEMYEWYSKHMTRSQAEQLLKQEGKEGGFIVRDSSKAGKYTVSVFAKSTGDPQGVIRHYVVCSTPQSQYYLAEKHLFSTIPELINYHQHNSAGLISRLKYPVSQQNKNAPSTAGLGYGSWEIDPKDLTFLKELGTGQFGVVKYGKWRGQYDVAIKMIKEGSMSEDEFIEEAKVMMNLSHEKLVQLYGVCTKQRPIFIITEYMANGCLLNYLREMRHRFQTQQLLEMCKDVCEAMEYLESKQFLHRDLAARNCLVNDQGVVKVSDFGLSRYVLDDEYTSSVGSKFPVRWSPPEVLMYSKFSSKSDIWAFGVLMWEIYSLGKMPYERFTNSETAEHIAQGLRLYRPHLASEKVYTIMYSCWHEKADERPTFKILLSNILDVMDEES

Sequence of UniProt P49674 (P49674 whole entry): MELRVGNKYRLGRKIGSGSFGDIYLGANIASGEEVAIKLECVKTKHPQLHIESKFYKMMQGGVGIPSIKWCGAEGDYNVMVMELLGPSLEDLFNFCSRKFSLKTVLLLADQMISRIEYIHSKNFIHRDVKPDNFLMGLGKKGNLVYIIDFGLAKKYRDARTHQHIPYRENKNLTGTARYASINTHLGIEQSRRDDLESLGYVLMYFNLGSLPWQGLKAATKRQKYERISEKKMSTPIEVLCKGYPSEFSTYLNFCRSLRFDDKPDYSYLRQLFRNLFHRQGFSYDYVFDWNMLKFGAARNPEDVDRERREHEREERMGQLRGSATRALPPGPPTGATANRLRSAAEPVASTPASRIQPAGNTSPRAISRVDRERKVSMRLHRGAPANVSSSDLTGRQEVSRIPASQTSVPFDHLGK

inhibition at 1 µM (CSK): 81% | inhibition at 1 µM (CSNK1E (CK1 epsilon)): 35% | inhibition at 1 µM (RET M918T): 47% | inhibition at 1 µM (TNK2 (ACK)): 60% | inhibition at 1 µM (ZAK): 2% | inhibition at 1 µM (BTK): 110%
SMILES: C=CC(=O)N1CCC[C@@H](n2nc(-c3ccc(Oc4ccccc4)cc3C)c3c(N)ncnc32)C1 [Compound 2, (R)-1-(3-(4-amino-3-(2-methyl-4-phenoxyphenyl)-1H-pyrazolo[3,4-d]pyrimidin-1-yl)piperidin-1-yl)prop-2-en-1-one]
